# The list shows a part of the results.
# System: PfSIP2 AP2 domain 1 (GST-tagged)
# Assay: gcPBM binding intensity (ln(normalized median fluorescence intensity)); higher = stronger DNA binding
# In short: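 An Agilent 4 × 180k array carrying primer-extended double-stranded 36-bp intergenic genomic probes and negative controls received GST-tagged P. falciparum DNA-binding domains expressed in E. coli, about 25 μg on average, for 1 h. The binding buffer contained 1× PBS, 1% milk, 0.2 mg/ml BSA, 0.5% salmon testes DNA and 0.03% Triton X-100. Binding intensity is the top Masliner-normalised natural-log median intensity across replicate spots of either probe orientation, read after Alexa488 anti-GST antibody staining and a 488 nm scan.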
row,Sequence,gcPBM binding intensity (ln)
1,TGTTATGAGAACAGCACACAAGCTACATCATATATA [CACACA_site870],6.8
2,TATATATAAGATTGATGTACGATTTTGGTGTCTTAT [XGTACX_site2611],6.92
3,TATTATAGTATATATTGTACATATATATATTTTTTA [XGTACX_site8831],7
4,ATAATAATATATAGTACACACAAAAATGGAAGTAAA [CACACA_site3318],7.25
5,TAAAAATATTATAATGCATGCAAAATATTGTTATAA [TGCATGCA_site244],6.96
6,ATAGTTTTTCCAATTCAAAAAAAAAAAAAAAAAAAA [CACACA_negctrl_site969],6.91
7,AAAGTATAAATAAATACACACATATTTATTTATATA [CACACA_site7375],6.91
8,AACATATGATTAAACTGTACAAGAAAAATATAACAT [XGTACX_site4477],7.28
9,GAGAGGATCATCAATTCACACACATAAAAATGAAGT [CACACA_site9010],6.81
10,GTAATACCCAAACACACACACATACCCATATATATA [CACACA_site5510],7.52
11,AGAAAGTAAAGCTGTTGTACTATTATATATATTTTA [XGTACX_site8090],6.82
12,TTTCTTTTTAAATAATAATGTATAATAAAAAGTTCA [TGCATGCA_negctrl_site195],6.97
13,TTTGTTTGATATATGTGTACATATATATATTATGCT [XGTACX_site3522],7.22
14,TATAATATGTATATCTGTACATATTTTAAATCTAAT [XGTACX_site2426],6.86
15,AAGTACAATTCATGTATGCACTTTATTATATTTTAT,8.14
16,AAGATAAAATAATAAAGTACACATATAAATTGAAAA [XGTACX_site2113],7
17,TAATTTTTTAAATTTAAACACACATTTTGTATATGT [CACACA_site8479],6.94
18,TGATACGTATTTATTTCACACACGTTAAAAAAATAA [CACACA_site3914],7.01
19,TATATATATATATATTGTACGAACCTTTTTTTTTTT [XGTACX_site4169],9.26
20,CTAACACTAATTTTTTGTACACAATATGTAAATAAA [XGTACX_site6424],7.28
21,ATTTTTACATAGGAAGCATGCATATTTTAAAAATAA [TGCATGCA_site1046],6.81
22,TTATTTCTGAATATTTTTTTTTTTTCTTCTTTTTTA [CACACA_negctrl_site815],6.5
23,CATGTGTTCTATATTTATGTCTAACTTTTTAATTAA [CACACA_negctrl_site904],6.97

row,Sequence,gcPBM binding intensity (ln)
1,TAATGTAATACATATTGTACACATACATATATATTT [XGTACX_site7531],6.99
2,ATATATAATCATCACACATGCAGCCCTGATGAAAAA [TGCATGCA_site687],6.93
3,GGGTATACCAATATAACACACATATATCTATAATAT [CACACA_site6348],6.9
4,TATAAATTTTTATTTACATGCAGTTATTATTTCCAT [TGCATGCA_site41],6.8
5,TTTTTGTTACCTATTGTGCACTTCATATAAATTAAA,10.8
6,TATTAAAAGGTTAAAGCATGCATACATATATATGTT [TGCATGCA_site865],6.89
7,AATAATAAATAAAAATGTACACATACATTTCTATCC [XGTACX_site7057],6.98
8,ATATATATATATATATGTACATATTTATATTGTAAA [XGTACX_site8878],9.45
9,GTAATTTTATATGGTTGTACATATATATATATATAT [XGTACX_site6659],9.68
10,ATATATATATATATATATATTTATATGTGAAAACCC [CACACA_negctrl_site845],9.3
11,TTATACCTGATTTAGGTGCTATAAATTTGTGTTTTT,7.06
12,ATATATATATATATGTGTACTTATATATTTAAAAAA [XGTACX_site1761],8.89
13,CGCATAAAGACAAGAACACACATATATATTGTAGTA [CACACA_site5938],7
14,CAACAACAAAAAAAAAAATAATAATAATAAAAAATA [TGCATGCA_negctrl_site271],6.71
15,TATTTTTTAAAAAAATGTCATAAAATTTCTTTTTTC [XGTACX_negctrl_site271],6.64
16,ATATACAAAGGATTAACACACATATTATTATATATA [CACACA_site1880],6.87
17,AGAAAAAAATAATGTACACACACATATATGTTTATA [CACACA_site7946],6.94
18,TAAATGTCTGTTAATGCACACGATATGTCTATATAT [CACACA_site2352],7.19
19,CTTTCTATATAAAATCGTACATATATAATATTATAT [XGTACX_site5807],7.3
20,TATATTAAGAAACACACACACATATATATATATATA [CACACA_site1609],9.76
21,TTCCTATTTCCTATGTGTACTTATAAATAAGTGTCT [XGTACX_site3725],7.14
22,GAAATTATAAATTGGACACACACATAAAAAATATGT [CACACA_site7957],6.91
23,TATAAAATATATATCTGTACGTATTTTATTTTTTAT [XGTACX_site6257],7.11

row,Sequence,gcPBM binding intensity (ln)
1,TATAAGCAAAGACACACACACATATAAATATAAATA [CACACA_site7740],7.07
2,AATACAATATAAAGGTGTACATATATATATATATAT [XGTACX_site68],9.18
3,ATGTAGATAGATAGGGTGCTAAAAATAAGATTTATA [GTGCAC_site9602],8.92
4,AAAAAAAAAAAAAAAACACACACAACACCCATACCT [CACACA_site9208],7.89
5,TACAAAATATTTTACACACACATATAAATACCTATA [CACACA_site7272],7.19
6,TATATATATATATGAGTGCATATGTGTAATATAAAA,9.27
7,TATATAATTATTTGATGTACACTACAATGTATTTGT [XGTACX_site7991],7.16
8,TTATGTTCTTAATGCACACTTATAAGTATCTTATAA [CACACA_site1394],7.3
9,TTAACATTTTAAAAATGTACATTTATATACATAAAT [XGTACX_site922],6.96
10,AGAAAAATTCTAAGAACATGCAAAAAAATAAAAAAA [TGCATGCA_site293],6.84
11,TCTAATGTAATGCATACACACAACTATCCATCAAAA [CACACA_site534],6.93
12,AAAAAATAAATAAATATACACACCATATATATATTT [CACACA_site2854],6.85
13,TACACGCATAGACACACACACACACGCATATAAATA [CACACA_site6446],7.47
14,TATACCTATAGACACACACACATAAATAGATATATA [CACACA_site6748],7.19
15,TTTTTTTTTTTAAATAGTACACATATATATATATAT [XGTACX_site6983],9.28
16,AAAAAAAAAAAAAAAAGTACAAAAAAAAAAAAAAAA [XGTACX_site4549],7.63
17,TTTTATTTTTCTAGTAGTACTTCTTTTTATAATATA [XGTACX_site1181],6.83
18,AGTTTACACCTTGTGAGTACATACATACATATATAT [XGTACX_site8793],7.26
19,CACACCATATAATATATATATATGTATATATTTATA [CACACA_negctrl_site397],7.15
20,TTTTTTTTTTTTTTGTCACACACCTTCATAAGAAAA [CACACA_site1166],7.09
21,TAAAAGGAACAAAATTGTACTTAAAAGACAAAGTTA [XGTACX_site7661],6.75
22,ACACAAAAATAAAAATGTACAAATTAAAAAAAATGA [XGTACX_site2083],6.96
23,TTTGTTCTATGGAGTTTAAAATGTAATATATATTAA [GTGCAC_negctrl_site151],7

row,Sequence,gcPBM binding intensity (ln)
1,ATCCTGAACAGAATATGTATAAACAGAAGGAAACAA [CACACA_negctrl_site1805],7.21
2,ATATATATTAATAGTTGTACTATTATAATATTACAA [XGTACX_site1213],7
3,ATATATATATATATATATATATATATATTTATATAT [GTGCAC_negctrl_site180],9.13
4,CTTTGTAGTTGGTCCACACACATATATGGAAGAATA [CACACA_site1280],7.29
5,TAATAATAGAGACACACACACATTTTTAATAATACA [CACACA_site6691],7
6,TTTTAATTTATCGACACACGCATGAATAGAAATTAG [CACACA_site3361],6.87
7,AAAAAAAAAAAAAAAACACACATATAGATTATTGTA [CACACA_site7797],7.5
8,TATTTTTATTTTCCTTCACACATTTTTTATATTTTT [CACACA_site5830],6.92
9,TTATAATTTAATAAATGTACATAAATAATATACATA [XGTACX_site7271],7.08
10,AGACAATATCTTATTTGTACATATGTATTCCTCATA [XGTACX_site5757],7.07
11,ACTTTTTTTTTTTTTTTAGATTACATAAATATAAAT [CACACA_negctrl_site139],7.56
12,TATGTATATTTAAATGCATGTGATTATTTTTGACTT [TGCATGCA_site568],7.05
13,TTATAAATTTAAAAAGTGCATAATAATAACAAAAAG,8.93
14,ATTATGGATACATAAACACACATATATATAAAAAAA [CACACA_site4303],7.01
15,ACATGATAAATAGTCACACATAAATATAATATATAT [CACACA_site5207],7.15
16,AATTATTCATAAAATGCATGTACATGGTTTAATATT [TGCATGCA_site87],6.99
17,TCGTAAACTTTATGCACACACATATACATATTTCAT [CACACA_site739],7.35
18,ATACATGTTTTATGTGCACACAAAGTTGTTATGAGG [CACACA_site4032],8.79
19,ATAATACACAAGCACACACACACACGGATATTTATA [CACACA_site6714],7.19
20,ATAATTATATTTTATTCACACATCGTTATATAGTAA [CACACA_site4743],7.1
